The structures appear in SMILES notation. Among all 310,000 compounds or so, about 14,000 (4.5%) showed an effect of 50% or more. The effect is printed as a negative number. The list shows a part of the results.

The values that follow come from paper PMC4336329 (PLoS ONE, 2015).
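Further: peak tail current of the secondary pulse compared with the same well before compound.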

Chain of human ether-à-go-go-related gene (hERG) potassium channel (Q12809 whole entry, looked up): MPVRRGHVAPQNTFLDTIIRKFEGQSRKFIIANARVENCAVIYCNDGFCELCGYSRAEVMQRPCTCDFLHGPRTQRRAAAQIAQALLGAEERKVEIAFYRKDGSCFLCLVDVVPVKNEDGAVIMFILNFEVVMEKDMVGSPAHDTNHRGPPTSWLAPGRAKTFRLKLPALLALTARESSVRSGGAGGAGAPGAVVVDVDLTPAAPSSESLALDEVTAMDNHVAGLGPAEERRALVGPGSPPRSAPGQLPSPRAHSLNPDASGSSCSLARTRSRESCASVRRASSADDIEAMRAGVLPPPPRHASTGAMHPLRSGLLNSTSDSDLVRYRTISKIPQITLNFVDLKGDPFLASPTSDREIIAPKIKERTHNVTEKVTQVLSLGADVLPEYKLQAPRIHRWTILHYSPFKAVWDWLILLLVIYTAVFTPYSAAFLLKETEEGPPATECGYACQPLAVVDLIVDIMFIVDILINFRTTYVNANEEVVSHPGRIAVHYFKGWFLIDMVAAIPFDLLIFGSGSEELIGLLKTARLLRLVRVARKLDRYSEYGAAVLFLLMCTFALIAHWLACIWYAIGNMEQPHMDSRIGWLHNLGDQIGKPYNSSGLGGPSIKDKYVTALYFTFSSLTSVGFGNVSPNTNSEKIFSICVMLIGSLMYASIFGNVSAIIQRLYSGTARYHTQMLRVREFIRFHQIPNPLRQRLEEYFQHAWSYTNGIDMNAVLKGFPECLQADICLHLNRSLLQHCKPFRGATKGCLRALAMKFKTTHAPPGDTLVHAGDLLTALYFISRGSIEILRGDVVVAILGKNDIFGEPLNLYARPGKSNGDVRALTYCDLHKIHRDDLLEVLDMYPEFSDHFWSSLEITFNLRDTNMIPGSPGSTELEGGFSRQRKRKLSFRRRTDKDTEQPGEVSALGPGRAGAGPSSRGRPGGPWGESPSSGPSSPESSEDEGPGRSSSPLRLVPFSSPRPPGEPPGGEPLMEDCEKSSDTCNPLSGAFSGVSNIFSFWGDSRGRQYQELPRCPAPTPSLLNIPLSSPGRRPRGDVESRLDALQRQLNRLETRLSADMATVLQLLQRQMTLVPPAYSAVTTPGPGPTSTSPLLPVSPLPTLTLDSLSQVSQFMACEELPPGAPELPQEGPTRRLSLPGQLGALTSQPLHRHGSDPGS

This assay addresses human ether-à-go-go-related gene (hERG) potassium channel (human, UniProt Q12809). As to the kind of experiment: primary screen, population patch clamp on CHO cells stably expressing hERG.
With `CCC(C)NC(=O)C1CCCN(c2nc(C)cc(OC)n2)C1` (centres unmarked), the “hERG current change (%, negative = inhibition) at 10uM” value is 7.02%. The result for `S=c1[nH]nc(-c2ccccc2Cl)n1CC1CCCO1` (centres unmarked) reads -9.96%; that for `C=C1CCN([C@H](C(=O)O)C(C)C)S(=O)(=O)c2ccccc21`, 6.38%. The result for `CCOc1cc(C2CC(=O)NC3=C2C(=O)C(C(=O)OC)C(C)C3)cc(Br)c1O` (centres unmarked) reads 1.19%; that for `COc1cccc(/C=C/C(=O)NNC(=O)c2ccncc2)c1`, -20.5%. For `C/C(=N\NC(=O)c1cccnc1)c1cc2ccccc2o1`, the “hERG current change (%, negative = inhibition) at 10uM” value is on record as -1.01%.

As for `N#CCCNS(=O)(=O)c1ccc(C(=O)OCCCOC(=O)c2ccc(S(=O)(=O)NCCC#N)cc2)cc1`, the “hERG current change (%, negative = inhibition) at 10uM” value was 5.47%. In the case of `Cc1ccccc1NC(=O)c1ccccc1NC(=O)c1ccccc1F`, the “hERG current change (%, negative = inhibition) at 10uM” value came out at 11.3%.

As for `O=C(Nc1ccc(O)cc1)c1ccc2c(c1)C(=O)N(Cc1ccco1)C2=O`, the “hERG current change (%, negative = inhibition) at 10uM” value was -42.8%. Turning to `COCC(C)n1c(C)cc(C(=O)COC(=O)c2nc3nc(C)cc(C)n3n2)c1C` (centres unmarked), the “hERG current change (%, negative = inhibition) at 10uM” value is 8.12%. Regarding `O=C(c1ccc(COc2ccccc2)o1)N1CCN(S(=O)(=O)c2ccccc2Cl)CC1`, the “hERG current change (%, negative = inhibition) at 10uM” value is reported as -46.3%. The result for `O=C(CSc1nnc(CNc2ccc(F)cc2)n1Cc1ccccc1)NCc1ccccc1` reads 5.28%; that for `S=C(NCc1cccs1)Nc1cc(Cl)cc(Cl)c1`, 13%.

Take `COCC(=O)Nc1ccccc1C(=O)NC(C)C`: the “hERG current change (%, negative = inhibition) at 10uM” value turned out to be 12%.

Turning to `COc1ccc(-c2nc(CSCC(=O)N3CCN(c4cccc(C)c4)C(C)C3)c(C)o2)cc1OC` (centres unmarked), the “hERG current change (%, negative = inhibition) at 10uM” value is -32.6%. As to `Cc1c(O)ccc(C(=O)CN2CC(C)OC(C)C2)c1O` (centres unmarked), the “hERG current change (%, negative = inhibition) at 10uM” value came to 18.9%.

On to `CC(C)C[C@@H](CO)N1CCN(CCc2ccccc2)CCC1=O`, for which the “hERG current change (%, negative = inhibition) at 10uM” value is recorded as -23%.

For `C/C(=N/O)c1cccc(N2Cc3ccccc3C2)c1`, the “hERG current change (%, negative = inhibition) at 10uM” value is recorded as 3.23%.

In the case of `Cc1ccc(C)c(OCCC(=O)Nc2ccc(S(=O)(=O)N3CCCC3)cc2)c1`, the “hERG current change (%, negative = inhibition) at 10uM” value is given as 13.1%. The same measure for `CS(=O)(=O)Nc1ccc(C(=O)NCc2cccnc2)cc1`: 1.62%. The same measure for `Cc1[nH]n(-c2ccccc2)c(=O)c1/C=N/N(c1ccccc1)c1ccccc1`: 41.6%; for `O=C(c1nc(-c2ccccc2)n(-c2ccccc2)n1)N1CCCCCC1`: -24.5%.

For the compound `O=C(Nc1ccccc1N1CCOCC1)c1ccncc1`, the “hERG current change (%, negative = inhibition) at 10uM” value is reported as -1.93%.

`COc1ccc(CCn2c(=N)c(C(=O)NCC3CCCO3)cc3c(=O)n4cccc(C)c4nc32)cc1` (centres unmarked): the “hERG current change (%, negative = inhibition) at 10uM” value is given as -79.7%. Regarding `C=CCn1c(SCc2c(C)noc2C)nc2sc3c(c2c1=O)CCCC3`, the “hERG current change (%, negative = inhibition) at 10uM” value is -7.01%.

Take `Cc1cccc(CS(=O)(=O)Cc2ccc(C(=O)NCc3ccccc3)o2)c1`: the “hERG current change (%, negative = inhibition) at 10uM” value is recorded as -19.9%. The same measure for `COc1ccccc1NCCC(=O)OCC(=O)NC1CCCCCC1`: 27.1%.

On to `O=C(O)c1ccc(-n2cccc2/C=N\NC(=O)c2cc3cc(Br)ccc3o2)cc1`, for which the “hERG current change (%, negative = inhibition) at 10uM” value is recorded as 10.1%. The same measure for `CCC(=O)NC(c1cccs1)c1ccc2cccnc2c1O` (centres unmarked): 13%. The same measure for `CC(C)C(=O)N=C1SC2CS(=O)(=O)CC2N1Cc1ccc(Cl)cc1` (centres unmarked): 9.08%; for `CC(C)c1ccc(/C=C/C(=O)NCCCN2CCOCC2)cc1`: -39%; for `CN(C)c1ccc(-n2cccc2)cc1`: 6.37%. Turning to `O=C(CC1C(=O)NCCN1Cc1ccccc1C(F)(F)F)NC1CCCC1` (centres unmarked), the “hERG current change (%, negative = inhibition) at 10uM” value was -10.9%.

Consider `COc1cccc(/C=N/NC(=O)c2ccc(N(C)S(=O)(=O)c3ccccc3)cc2)c1OC`, for which the “hERG current change (%, negative = inhibition) at 10uM” value turned out to be 0.494%. As to `COc1cc(-c2nc3ccccn3c2NCC2CCCO2)ccc1O` (centres unmarked), the “hERG current change (%, negative = inhibition) at 10uM” value is -17.9%.

With `COc1ccccc1NC(=O)CN1CCN(c2ccccc2F)CC1`, the “hERG current change (%, negative = inhibition) at 10uM” value was -18.4%. The same measure for `O=c1[nH]c(SCc2nc3ccccc3n2Cc2ccccc2)nc2ccccc12`: 10.6%; for `CCOCCCNC(=O)c1c(C)[nH]c(C(=O)OCC)c1C`: -9.77%; for `O=C(CCc1ccc(S(=O)(=O)N2CCCCC2)cc1)c1nnc(-c2ccccc2)o1`: -12.7%. `COc1cccc(C=Nc2cccnc2)c1O`: the “hERG current change (%, negative = inhibition) at 10uM” value is -2.5%. The same measure for `Cc1c(OCC(=O)NC(Cc2c[nH]c3ccc(O)cc23)C(=O)O)ccc2c3c(c(=O)oc12)CCC3` (centres unmarked): -2.19%; for `CC(C)CCc1noc(CN(C)CCC2CCOCC2)n1`: 18.1%; for `COCCN(CC(=O)NCC1CCCO1)C(=O)CCC(=O)Nc1cc(C)ccn1` (centres unmarked): 11.3%. The same measure for `COc1ccc(/C=C2\SC(=O)N(CC(=O)NC3CCS(=O)(=O)C3)C2=O)cc1` (centres unmarked): 21.9%.
